In PubChem BioAssay AID504832 (National Center for Advancing Translational Sciences (NCATS), 2011):
The whole screen tested about 310,000 compounds, of which about 18,000 (5.8%) were called active. The shares of active, inactive and inconclusive entries below differ from those in the screen. The call rests on the fitted dose curve; in most records, active means well fitted inhibition curve with a large enough effect; inconclusive means small, poorly fitted or top-dose-only effect, or another doubt; inactive means no such curve, though single readings can be large or run the other way. Potencies of inconclusive entries are left out as doubtful fits.

Experiment: Primary qHTS for delayed death inhibitors of the malarial parasite plastid, 48 hour incubation
Conditions: P. falciparum luciferase growth in erythrocytes; series mostly up to 28.7 µM; activity change, negative = inhibition: at the top concentration
Summary of the method: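 Erythrocytes infected with P. falciparum carrying an integrated firefly luciferase reporter (2% hematocrit, 0.1% parasitemia final) were exposed to compounds in RPMI 1640 with 0.5% Albumax at 37 C, 5% CO2. Growth inhibition was scored as reduced luminescence.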
On the % scale 0 is the no-effect control and ±100 the full control effect; potency means the concentration at half of the fitted maximal effect; tags describe the fitted curve by direction and shape.

SMILES | Potency | activity change, negative = inhibition
CCn1c(SCc2nc3ccccc3c(=O)[nH]2)nc2ccccc2c1=O | inconclusive [inhibitor, single point] | –
CCn1c(/C=C/N(C(C)=O)c2ccccc2)[n+](CC)c2ccc(Cl)cc21 | active: 2.08 µM | –
O=C(CSc1nc(Nc2ccccc2)nc(N2CCOCC2)n1)Nc1ccc([N+](=O)[O-])cc1 | active: 11.7 µM | –
COc1ccc(OC(=O)/C=C/c2ccc([N+](=O)[O-])cc2)cc1 | inconclusive [inhibitor, single point] | –
C=CCn1c(SCC(=O)N2CCN(C(=O)c3ccco3)CC2)nc2sc(CC)cc2c1=O | inconclusive [inhibitor, partial curve] | –
CC[C@@H]1CC=C[C@H]2[C@H]1C(=O)N(Cc1ccccc1)[C@H]2c1ccc(OC)c(Cl)c1 | inconclusive [inhibitor, single point] | –
CC(OC(=O)c1ccc(C(C)(C)C)cc1)C(=O)NC1CCCCC1C (centres undefined) | inconclusive [inhibitor, single point] | –
CCN(CC(=O)NCc1cccs1)C(=O)c1cccc(S(=O)(=O)NC)c1 | inconclusive [inhibitor, single point] | –
CCOC(=O)C(=O)NCC(c1cccs1)S(=O)(=O)c1ccc(C)cc1 (centres undefined) | – | inactive: -0.602%
COc1ccc(-c2cnc3nc(/N=C/N(C)C)nn3c2/N=C/N(C)C)cc1 | inconclusive [inhibitor, single point] | –
CCN1CCN(S(=O)(=O)c2ccc(Cl)c(C(=O)N(C)Cc3cccc(Cl)c3Cl)c2)CC1 | inconclusive [inhibitor, single point] | –
COc1ccc(S(=O)(=O)N(C(=O)C(C)C)c2ccc3oc(=O)sc3c2)cc1 | inconclusive [inhibitor, single point] | –
O=C(COc1cc2oc(=O)c3c(c2cc1Cl)CCC3)NCCCN1CCCC1=O | inconclusive [inhibitor, single point] | –
Cc1ccc(S(=O)(=O)N2CCN(C(=O)N3CCOCC3)C2c2ccc(N(C)C)cc2)cc1 (centres undefined) | – | inactive: 8.37%
CCN1C(=O)[C@H]2[C@@H](c3ccc(-c4ccc5c(c4)OCO5)c(OC)c3)N[C@@](Cc3ccccc3)(C(=O)OC)[C@H]2C1=O | active: 1.17 µM | –
CCC(O)(c1ccc(OC)cc1)C(CN1CCOCC1)c1ccccc1 (centres undefined) | inconclusive [inhibitor, partial curve] | –
COc1ccc(S(=O)(=O)N2CCCCCC2)cc1NC(=O)CC1OC(=O)c2ccccc21 (centres undefined) | inconclusive [inhibitor, single point] | –
Cc1n[nH]c(=S)c2nn(-c3ccccc3)c(C)c12 | – | inactive: 7.89%
COCCn1ccc2c(OCC(=O)NCc3ccccc3)cccc2c1=O | inconclusive [inhibitor, single point] | –
O=C(N[C@@H](Cc1ccccc1)C(=O)OCc1ccccc1)c1nc[nH]c1C(=O)NC(c1ccccc1)c1ccccc1 | active: 1.31 µM | –
CCCCn1c(N)c(N(CC(C)C)C(=O)c2ccc(F)c(S(=O)(=O)N3CCOCC3)c2)c(=O)[nH]c1=O | inconclusive [inhibitor, single point] | –
COc1cccc(NC(=O)NCCCN2CCN(c3ccc(F)cc3)CC2)c1 | inconclusive [inhibitor, single point] | –
COc1ccc(C(O)(c2ccccc2OC)C(CN2CCOCC2)c2ccccc2)cc1 (centres undefined) | inconclusive [inhibitor, single point] | –

SMILES | Potency | activity change, negative = inhibition
O=C(N/N=C/c1ccc(N2CCCCC2)o1)c1ccccc1 | inconclusive [inhibitor, partial curve] | –
Cc1onc(NC(=O)c2ccc([N+](=O)[O-])o2)c1Br | inconclusive [inhibitor, single point] | –
COc1cccc(CN(C)CC(=O)Nc2ccccc2N2CCOCC2)c1OC | – | inactive: 32.6% [at 1.15 µM]
Cc1cccc(NC(=O)CN2C(=O)S/C(=C\c3ccccn3)C2=O)c1 | – | inactive: -17.4%
COc1cc(C#Cc2c(-c3cncn3C)n(C)c3ccc(-c4ccc(OC)c(OC)c4)cc23)cc(OC)c1 | active: 1.31 µM | –
S=C(NCCc1ccccc1)Nc1ccc(Nc2ccccc2)cc1 | inconclusive [inhibitor, partial curve, poor fit] | –
CCCC(=O)N1CCc2cc(OC)c(OC)cc2C1COc1ccccc1OC (centres undefined) | inconclusive [inhibitor, single point] | –
Cc1cccc(NC(=O)CNC(=O)c2ccc3c(c2)OCO3)n1 | inconclusive [inhibitor, partial curve, poor fit] | –
COCCCNC(=O)Cn1cc(/C=C(\C#N)C(=O)NC2CCCC2)c2ccccc21 | – | inactive: 14%
Cc1cc(=O)oc2c3c(cc(OCC(=O)NC4CC4)c12)OC(C)(C)CC3 | inconclusive [inhibitor, single point] | –
CCC(C)Sc1nnc(CSc2nc(C)cc(C)n2)n1C (centres undefined) | inconclusive [inhibitor, single point] | –
COCCn1c(SCC(=O)Nc2cc(Cl)ccc2OC)nc2c(c1=O)SC(C)C2 (centres undefined) | active: 8.28 µM | –
C[N+]1(C)[C@@H]2CC(OC(=O)C(O)(c3cccs3)c3cccs3)C[C@H]1[C@@H]1O[C@@H]12 (some centres undefined) | inconclusive [inhibitor, partial curve] | –
O=C(NCc1ccccn1)C(=O)Nc1ccccc1 | – | inactive: 106%
C=CCOc1cccc(C2/C(=C(/O)c3ccccc3)C(=O)C(=O)N2CCN2CCOCC2)c1 (centres undefined) | – | inactive: -2.21%
Cc1cc(N2CCN(Cc3nc(-c4ccc(F)cc4)oc3C)CC2)cc(C)n1 | inconclusive [inhibitor, full curve, poor fit] | –
CC(C)NC(=S)NN(c1ccccc1)c1ccccc1 | inconclusive [inhibitor, partial curve, poor fit] | –
CC(C)c1ccc(NC(=O)C2CCC(CNC(=O)[C@@H]3Cc4ccccc4CN3)CC2)cc1 (some centres undefined) | inconclusive [inhibitor, full curve] | –
COc1ccccc1OCC(=O)OC/C(O)=C(\C#N)c1nc2ccccc2[nH]1 | – | inactive: 19.6%
CN(CCc1cnn(C)c1)C(=O)CCc1nnc(CCCc2ccccc2)o1 | – | inactive: -3.69%
O=C(O)CCC(=O)Nc1ccc(N2CCCCCC2)cc1 | inconclusive [inhibitor, single point] | –
CN(C)CCCN(CCCN(C)C)C(=S)Nc1ccc(S(=O)(=O)N2CCOCC2)cc1 | – | inactive: 0%
Cn1c(SCC(=O)Nc2nccs2)nnc1-c1ccco1 | inconclusive [inhibitor, single point] | –

SMILES | Potency | activity change, negative = inhibition
c1ccc(Nc2nc(N3CCOCC3)c3ccccc3n2)cc1 | inconclusive [inhibitor, single point] | –
CC(=O)Nc1ccc(CN2CCCN(C)CC2)cc1 | – | inactive: 6.75%
CC1(C)OC(=CC=Nc2ccc(Cl)cc2)OC1(C)C | inconclusive [inhibitor, partial curve, poor fit] | –
Cc1nn2c(N3CCN(C(=O)c4ccco4)CC3)cc(C(C)(C)C)nc2c1-c1ccc(Cl)cc1 | inconclusive [inhibitor, full curve] | –
CNC(=S)N/N=C/C1=CCC2CC1C2(C)C (centres undefined) | active: 5.86 µM | –
C/C(=N/O)c1cccc(N2Cc3ccccc3C2)c1 | active: 13.1 µM | –
CCOc1nc(-c2ccccc2)ccc1-c1noc(-c2cccs2)n1 | inconclusive [inhibitor, full curve, poor fit] | –
CN(C)c1cc[n+](CC(=O)c2ccc(-c3ccccc3)cc2)cc1 | active: 4.65 µM | –
CCOc1ccc(CNCCCSc2ncccn2)cc1OC | – | inactive: 3.86%
COc1ccccc1NS(=O)(=O)c1cccc(C(=O)NCC(c2ccco2)N2CCCC2)c1 (centres undefined) | active: 11.7 µM | –
CCOc1ccc(CCNC(=O)COC(=O)/C=C/c2ccccc2OC)cc1OCC | – | inactive: -1.86%
NNC(=O)c1sccc1OCc1ccc(F)cc1 | inconclusive [inhibitor, single point] | –
CCOc1ccc2[nH]c(=O)c(CN(Cc3ccccc3)C(=O)N3CCCC3)cc2c1 | inconclusive [inhibitor, partial curve] | –
CCOc1ccccc1Nc1ccnc2cc(Cl)ccc12 | active: 2.62 µM | –
O=C(NC1CCCCC1)N1CCN(c2ccccc2)CC1 | inconclusive [inhibitor, single point] | –
COc1cc(/C=N/Nc2nc(-c3ccc(S(=O)(=O)N(C)C)cc3)cs2)ccc1O | active: 2.08 µM | –
Cc1ccc(-c2cn(S(=O)(=O)c3cccc([N+](=O)[O-])c3)nc2N)cc1 | active: 3.29 µM | –
COc1ccccc1C1(CCNS(=O)(=O)c2ccc(C)cc2)CCOC(C(C)C)C1 (centres undefined) | inconclusive [inhibitor, single point] | –
Cc1ccc(Cn2c(SCC(C)C)nc3c2c(=O)[nH]c(=O)n3C)cc1 | – | inactive: 0.482%
CC(=O)c1ccc(OCC(O)CN2CCN(S(=O)(=O)c3c(C)c(C)cc(C)c3C)CC2)cc1 (centres undefined) | inconclusive [inhibitor, partial curve] | –
O=C(NNC(=O)c1cc(-c2ccncc2)nc2ccccc12)Nc1ccc(F)cc1 | inconclusive [inhibitor, single point] | –
O=C(NC1CC1)c1cc2cc(Br)ccc2s1 | inconclusive [inhibitor, single point] | –
CCCCn1nc(C(=O)Nc2cccc(C(=O)NC3CC3)c2)c2ccccc2c1=O | active: 11.7 µM | –
